# The list shows a part of the results.
# Molecular target: T1, MBP-FoxP1dN (Mus musculus, UniProt P58462 326-579)
# T1 sequence: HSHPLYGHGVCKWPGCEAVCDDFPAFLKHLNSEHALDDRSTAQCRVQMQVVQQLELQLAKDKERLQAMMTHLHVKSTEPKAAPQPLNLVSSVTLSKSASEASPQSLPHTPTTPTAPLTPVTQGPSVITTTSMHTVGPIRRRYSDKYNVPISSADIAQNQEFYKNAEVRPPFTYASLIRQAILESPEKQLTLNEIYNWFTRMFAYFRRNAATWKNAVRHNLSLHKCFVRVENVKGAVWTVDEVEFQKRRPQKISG
# Assay: PD-seq (MBP pull-down with sequencing); 20 mM Tris-HCl pH 7.5, 100 mM NaCl, 1.5 mM MgCl2, 0.4 uM protein, 0.1 uM dsDNA library, 30 min, room temperature, amylose pull-down; high values mean tight binding
# Settings: protein: recombinant; tags: His6-MBP; chain copies: 2; dsDNA, one strand shown
# Procedure, shortened: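 Binding is given as reads-per-million enrichment, pull-down over input, with replicates pooled. The bait was an N-terminus-lacking mouse FoxP3 or FoxP1 fragment with a His6-MBP tag, expressed in E. coli and used at 0.4 µM with 0.1 µM Klenow-filled degenerate double-stranded DNA library for 30 min at room temperature in Tris pH 7.5 buffer with NaCl and MgCl2. Amylose resin pull-down with three washes was followed by proteinase K release, PCR barcoding and Illumina sequencing.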
row,Sequence,binding signal
1,GATGATTGTTCTCCCAGCTGATGAATTGAAGTGTTCGAGTAAACAAATTTTCCTAATCTTTCTGTTCAAGCGCCATCTAC,0.866 RPM ratio (pull-down/input)
2,GATGATTGTTCTCCCAGCTGATGAATTTCGACGCTCGAGTAAACAAATTTTCCTAATCTTTCTGTTCAAGCGCCATCTAC,0.91 RPM ratio (pull-down/input)
3,GATGATTGTTCTCCCAGCTGATGAATTGCCTGCTTCGAGTAAACAAATTTTCCTAATCTTTCTGTTCAAGCGCCATCTAC,0.91 RPM ratio (pull-down/input)
4,GATGATTGTTCTCCCAGCTGATGAATTTCCTTTATCGAGTAAACAAATTTTCCTAATCTTTCTGTTCAAGCGCCATCTAC,0.929 RPM ratio (pull-down/input)
5,GATGATTGTTCTCCCAGCTGATGAATTTTGTAATTCGAGTAAACAAATTTTCCTAATCTTTCTGTTCAAGCGCCATCTAC,1.09 RPM ratio (pull-down/input)
6,GATGATTGTTCTCCCAGCTGATGAATTTAAATCTTCGAGTAAACAAATTTTCCTAATCTTTCTGTTCAAGCGCCATCTAC,0.91 RPM ratio (pull-down/input)
7,GATGATTGTTCTCCCAGCTGATGAATTAGGCTCCTCGAGTAAACAAATTTTCCTAATCTTTCTGTTCAAGCGCCATCTAC,0.819 RPM ratio (pull-down/input)
8,GATGATTGTTCTCCCAGCTGATGAATTCAAACGCTCGAGTAAACAAATTTTCCTAATCTTTCTGTTCAAGCGCCATCTAC,0.938 RPM ratio (pull-down/input)
9,GATGATTGTTCTCCCAGCTGATGAATTCTTCGTATCGAGTAAACAAATTTTCCTAATCTTTCTGTTCAAGCGCCATCTAC,0.959 RPM ratio (pull-down/input)
10,GATGATTGTTCTCCCAGCTGATGAATTGCGTCTTTCGAGTAAACAAATTTTCCTAATCTTTCTGTTCAAGCGCCATCTAC,1.15 RPM ratio (pull-down/input)
11,GATGATTGTTCTCCCAGCTGATGAATTGGGGTCATCGAGTAAACAAATTTTCCTAATCTTTCTGTTCAAGCGCCATCTAC,0.891 RPM ratio (pull-down/input)
12,GATGATTGTTCTCCCAGCTGATGAATTCCGTGTCTCGAGTAAACAAATTTTCCTAATCTTTCTGTTCAAGCGCCATCTAC,0.846 RPM ratio (pull-down/input)
13,GATGATTGTTCTCCCAGCTGATGAATTCCCACTTTCGAGTAAACAAATTTTCCTAATCTTTCTGTTCAAGCGCCATCTAC,0.873 RPM ratio (pull-down/input)
14,GATGATTGTTCTCCCAGCTGATGAATTGACTGAGTCGAGTAAACAAATTTTCCTAATCTTTCTGTTCAAGCGCCATCTAC,1.03 RPM ratio (pull-down/input)
15,GATGATTGTTCTCCCAGCTGATGAATTGTAAGTTTCGAGTAAACAAATTTTCCTAATCTTTCTGTTCAAGCGCCATCTAC,0.989 RPM ratio (pull-down/input)
16,GATGATTGTTCTCCCAGCTGATGAATTTCCCATCTCGAGTAAACAAATTTTCCTAATCTTTCTGTTCAAGCGCCATCTAC,0.808 RPM ratio (pull-down/input)
17,GATGATTGTTCTCCCAGCTGATGAATTCCGTTCATCGAGTAAACAAATTTTCCTAATCTTTCTGTTCAAGCGCCATCTAC,0.85 RPM ratio (pull-down/input)
18,GATGATTGTTCTCCCAGCTGATGAATTGAAAATGTCGAGTAAACAAATTTTCCTAATCTTTCTGTTCAAGCGCCATCTAC,0.884 RPM ratio (pull-down/input)
19,GATGATTGTTCTCCCAGCTGATGAATTACAATTATCGAGTAAACAAATTTTCCTAATCTTTCTGTTCAAGCGCCATCTAC,1.51 RPM ratio (pull-down/input)
20,GATGATTGTTCTCCCAGCTGATGAATTACGCGGTTCGAGTAAACAAATTTTCCTAATCTTTCTGTTCAAGCGCCATCTAC,1.01 RPM ratio (pull-down/input)
21,GATGATTGTTCTCCCAGCTGATGAATTTTACGCGTCGAGTAAACAAATTTTCCTAATCTTTCTGTTCAAGCGCCATCTAC,1.02 RPM ratio (pull-down/input)

row,Sequence,binding signal
1,GATGATTGTTCTCCCAGCTGATGAATTGTAGCTATCGAGTAAACAAATTTTCCTAATCTTTCTGTTCAAGCGCCATCTAC,1.13 RPM ratio (pull-down/input)
2,GATGATTGTTCTCCCAGCTGATGAATTGACTAACTCGAGTAAACAAATTTTCCTAATCTTTCTGTTCAAGCGCCATCTAC,1.11 RPM ratio (pull-down/input)
3,GATGATTGTTCTCCCAGCTGATGAATTCAACCAATCGAGTAAACAAATTTTCCTAATCTTTCTGTTCAAGCGCCATCTAC,1.04 RPM ratio (pull-down/input)
4,GATGATTGTTCTCCCAGCTGATGAATTTAGCAGATCGAGTAAACAAATTTTCCTAATCTTTCTGTTCAAGCGCCATCTAC,0.929 RPM ratio (pull-down/input)
5,GATGATTGTTCTCCCAGCTGATGAATTTAGACATTCGAGTAAACAAATTTTCCTAATCTTTCTGTTCAAGCGCCATCTAC,1.1 RPM ratio (pull-down/input)
6,GATGATTGTTCTCCCAGCTGATGAATTCTTAGTTTCGAGTAAACAAATTTTCCTAATCTTTCTGTTCAAGCGCCATCTAC,0.891 RPM ratio (pull-down/input)
7,GATGATTGTTCTCCCAGCTGATGAATTAAAACCCTCGAGTAAACAAATTTTCCTAATCTTTCTGTTCAAGCGCCATCTAC,0.814 RPM ratio (pull-down/input)
8,GATGATTGTTCTCCCAGCTGATGAATTCCTAACTTCGAGTAAACAAATTTTCCTAATCTTTCTGTTCAAGCGCCATCTAC,0.799 RPM ratio (pull-down/input)
9,GATGATTGTTCTCCCAGCTGATGAATTTGTGGTATCGAGTAAACAAATTTTCCTAATCTTTCTGTTCAAGCGCCATCTAC,1.23 RPM ratio (pull-down/input)
10,GATGATTGTTCTCCCAGCTGATGAATTGCTATGGTCGAGTAAACAAATTTTCCTAATCTTTCTGTTCAAGCGCCATCTAC,1.02 RPM ratio (pull-down/input)
11,GATGATTGTTCTCCCAGCTGATGAATTGGGAACATCGAGTAAACAAATTTTCCTAATCTTTCTGTTCAAGCGCCATCTAC,0.954 RPM ratio (pull-down/input)
12,GATGATTGTTCTCCCAGCTGATGAATTCGGTTGATCGAGTAAACAAATTTTCCTAATCTTTCTGTTCAAGCGCCATCTAC,1 RPM ratio (pull-down/input)
13,GATGATTGTTCTCCCAGCTGATGAATTTGGACCTTCGAGTAAACAAATTTTCCTAATCTTTCTGTTCAAGCGCCATCTAC,0.87 RPM ratio (pull-down/input)
14,GATGATTGTTCTCCCAGCTGATGAATTTTGGCATTCGAGTAAACAAATTTTCCTAATCTTTCTGTTCAAGCGCCATCTAC,1.15 RPM ratio (pull-down/input)
15,GATGATTGTTCTCCCAGCTGATGAATTTACGTCATCGAGTAAACAAATTTTCCTAATCTTTCTGTTCAAGCGCCATCTAC,1.45 RPM ratio (pull-down/input)
16,GATGATTGTTCTCCCAGCTGATGAATTCCTTCAGTCGAGTAAACAAATTTTCCTAATCTTTCTGTTCAAGCGCCATCTAC,0.852 RPM ratio (pull-down/input)
17,GATGATTGTTCTCCCAGCTGATGAATTTTTTTGGTCGAGTAAACAAATTTTCCTAATCTTTCTGTTCAAGCGCCATCTAC,0.952 RPM ratio (pull-down/input)
18,GATGATTGTTCTCCCAGCTGATGAATTCACTGTCTCGAGTAAACAAATTTTCCTAATCTTTCTGTTCAAGCGCCATCTAC,0.888 RPM ratio (pull-down/input)
19,GATGATTGTTCTCCCAGCTGATGAATTAGCACGCTCGAGTAAACAAATTTTCCTAATCTTTCTGTTCAAGCGCCATCTAC,0.971 RPM ratio (pull-down/input)
20,GATGATTGTTCTCCCAGCTGATGAATTCAGCGGGTCGAGTAAACAAATTTTCCTAATCTTTCTGTTCAAGCGCCATCTAC,0.773 RPM ratio (pull-down/input)
21,GATGATTGTTCTCCCAGCTGATGAATTGTAGATGTCGAGTAAACAAATTTTCCTAATCTTTCTGTTCAAGCGCCATCTAC,0.992 RPM ratio (pull-down/input)

row,Sequence,binding signal
1,GATGATTGTTCTCCCAGCTGATGAATTAGCATTTTCGAGTAAACAAATTTTCCTAATCTTTCTGTTCAAGCGCCATCTAC,1.41 RPM ratio (pull-down/input)
2,GATGATTGTTCTCCCAGCTGATGAATTCTCTTATTCGAGTAAACAAATTTTCCTAATCTTTCTGTTCAAGCGCCATCTAC,0.995 RPM ratio (pull-down/input)
3,GATGATTGTTCTCCCAGCTGATGAATTCTTGCGATCGAGTAAACAAATTTTCCTAATCTTTCTGTTCAAGCGCCATCTAC,0.969 RPM ratio (pull-down/input)
4,GATGATTGTTCTCCCAGCTGATGAATTCCCAGCTTCGAGTAAACAAATTTTCCTAATCTTTCTGTTCAAGCGCCATCTAC,0.873 RPM ratio (pull-down/input)
5,GATGATTGTTCTCCCAGCTGATGAATTTGCTAGGTCGAGTAAACAAATTTTCCTAATCTTTCTGTTCAAGCGCCATCTAC,0.869 RPM ratio (pull-down/input)
6,GATGATTGTTCTCCCAGCTGATGAATTGTGGTTATCGAGTAAACAAATTTTCCTAATCTTTCTGTTCAAGCGCCATCTAC,1.27 RPM ratio (pull-down/input)
7,GATGATTGTTCTCCCAGCTGATGAATTGGCATGGTCGAGTAAACAAATTTTCCTAATCTTTCTGTTCAAGCGCCATCTAC,0.844 RPM ratio (pull-down/input)
8,GATGATTGTTCTCCCAGCTGATGAATTGAGCGATTCGAGTAAACAAATTTTCCTAATCTTTCTGTTCAAGCGCCATCTAC,0.894 RPM ratio (pull-down/input)
9,GATGATTGTTCTCCCAGCTGATGAATTCCCGAACTCGAGTAAACAAATTTTCCTAATCTTTCTGTTCAAGCGCCATCTAC,0.756 RPM ratio (pull-down/input)
10,GATGATTGTTCTCCCAGCTGATGAATTACCCGCGTCGAGTAAACAAATTTTCCTAATCTTTCTGTTCAAGCGCCATCTAC,0.941 RPM ratio (pull-down/input)
11,GATGATTGTTCTCCCAGCTGATGAATTCTTATCTTCGAGTAAACAAATTTTCCTAATCTTTCTGTTCAAGCGCCATCTAC,0.926 RPM ratio (pull-down/input)
12,GATGATTGTTCTCCCAGCTGATGAATTGCTGGCGTCGAGTAAACAAATTTTCCTAATCTTTCTGTTCAAGCGCCATCTAC,0.963 RPM ratio (pull-down/input)
13,GATGATTGTTCTCCCAGCTGATGAATTGTAAACTTCGAGTAAACAAATTTTCCTAATCTTTCTGTTCAAGCGCCATCTAC,1.57 RPM ratio (pull-down/input)
14,GATGATTGTTCTCCCAGCTGATGAATTGGTTTTCTCGAGTAAACAAATTTTCCTAATCTTTCTGTTCAAGCGCCATCTAC,1.13 RPM ratio (pull-down/input)
15,GATGATTGTTCTCCCAGCTGATGAATTTCCCCATTCGAGTAAACAAATTTTCCTAATCTTTCTGTTCAAGCGCCATCTAC,0.898 RPM ratio (pull-down/input)
16,GATGATTGTTCTCCCAGCTGATGAATTCGAACCTTCGAGTAAACAAATTTTCCTAATCTTTCTGTTCAAGCGCCATCTAC,0.82 RPM ratio (pull-down/input)
17,GATGATTGTTCTCCCAGCTGATGAATTTTCCCCATCGAGTAAACAAATTTTCCTAATCTTTCTGTTCAAGCGCCATCTAC,0.949 RPM ratio (pull-down/input)
18,GATGATTGTTCTCCCAGCTGATGAATTATCCACTTCGAGTAAACAAATTTTCCTAATCTTTCTGTTCAAGCGCCATCTAC,1.04 RPM ratio (pull-down/input)
19,GATGATTGTTCTCCCAGCTGATGAATTGTGAGCATCGAGTAAACAAATTTTCCTAATCTTTCTGTTCAAGCGCCATCTAC,1.22 RPM ratio (pull-down/input)
20,GATGATTGTTCTCCCAGCTGATGAATTAAGTAACTCGAGTAAACAAATTTTCCTAATCTTTCTGTTCAAGCGCCATCTAC,0.963 RPM ratio (pull-down/input)
21,GATGATTGTTCTCCCAGCTGATGAATTTTCTGATTCGAGTAAACAAATTTTCCTAATCTTTCTGTTCAAGCGCCATCTAC,0.963 RPM ratio (pull-down/input)
